Measured values from PubChem BioAssay AID686979 (National Center for Advancing Translational Sciences (NCATS), 2013).
Among all 420,000 compounds or so, about 50,000 (12%) were called active. Inconclusive results, whose numbers are uncertain, are shown with a selection of clear calls. Calls come from the whole dose curve; as a rule, active = well fitted inhibition curve with a large enough effect; inconclusive = small, poorly fitted or top-dose-only effect; inactive = flat fitted curve, though single readings scatter. Potencies of inconclusive entries are left out as doubtful fits.

Assay: qHTS for Inhibitors of human tyrosyl-DNA phosphodiesterase 1 (TDP1): qHTS in cells in presence of CPT; note: nearly all actives have a fitted effect of over 55% in size
Conditions: chicken DT40 Tdp1-/-;hTDP1 cells + 20 nM CPT, ATP luminescence, 48 h; activity change, negative = growth inhibition: at 46.2 µM (top of the series) unless noted
Summary of the method: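 Cell growth measured by CellTiter-Glo luminescence after a minimum 48 h, 37 C compound exposure with 20 nM CPT in Tdp1-knockout DT40 cells stably expressing hTDP1, seeded 400/well; qHTS titration format.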
% is set by controls: 0 for no effect and ±100 for the full control effect; potency is the fitted concentration of half-maximal effect; tags give direction and shape of the fitted curve.

Structure (SMILES) | Potency | activity change, negative = growth inhibition
COc1ccc(CN(CCN(C)C)Cc2ccccc2)c(OC)c1 | inconclusive [inhibitor, single point] | 
Cc1ccc(OCc2cc(C(=O)NCCc3cccnc3)no2)cc1C | inconclusive [inhibitor, single point] | 
CN(C)c1ncc2nc(-c3ccccc3)c(=O)n(C[C@H]3CCCO3)c2n1 | inactive | 
Cc1cnccc1CNC(=O)CC1C(=O)NCCN1CC(C)(C)C (configuration not stated) | inactive | 
O=C(CSc1ccc(Br)cc1)NCC1(N2CCCCC2)CCCCC1 | inconclusive [inhibitor, single point] | 
CCN(CC(=O)Nc1ccc(OC)cc1)CC(=O)Nc1sc2c(c1C(=O)OC)CCCC2 | inconclusive [inhibitor, single point] | 
Cc1ccccc1Cn1cc(S(=O)(=O)c2ccc(F)cc2)c(=O)c2cc3c(cc21)OCO3 | inconclusive [inhibitor, single point] | 
COc1cccc2c3cccc(OC)c3c3[nH]cnc3c12 | inconclusive [inhibitor, single point] | 
COc1ccccc1NC(=S)N(CCc1ccc(OC)c(OC)c1)Cc1ccccn1 | inconclusive [inhibitor, single point] | 
COC(=O)c1sccc1S(=O)(=O)N(CC(=O)Nc1cc(F)ccc1F)c1ccc(C)c(C)c1 | inconclusive [inhibitor, single point] | 
COc1ccccc1C(C)NCC(=O)c1c(C)[nH]c2ccccc12 (configuration not stated) | active: 11.2 µM | 
Cc1ccc(NS(=O)(=O)c2cccc(C(=O)NCC3(N(C)C)CCCCC3)c2)cc1 | inconclusive [inhibitor, single point] | 
CC1(C)Oc2ccc3ccc(=O)oc3c2/C(=C/Nc2cccc(O)c2)C1=O | inconclusive [inhibitor, single point] | 
CCCOc1ccc(C(=O)C(CCC(CNCC)C(=O)c2ccc(OCCC)cc2)CNCC)cc1 (configuration not stated) | active: 0.651 µM | 
O=C(COC(=O)c1ccc(NS(=O)(=O)c2cccs2)cc1O)NCc1ccccc1 | active: 4.61 µM | 
CC(C)(C)Nc1nc(N2CCCC2)nc(N2CCCC2)n1 | inconclusive [inhibitor, single point] | 
COc1ccc(C(=O)C2CCCN(Cc3cc(Cl)ccc3O)C2)c(OC)c1 (configuration not stated) | inconclusive [inhibitor, single point] | 
O=C(c1ccccc1-c1nc(-c2ccc(Cl)cc2)no1)N1CCCC1 | inconclusive [inhibitor, single point] | 
O=C(Oc1cccc(NC(=O)c2ccco2)c1)c1cccc(S(=O)(=O)N2CCCCC2)c1 | inactive | 
C=CCNc1nc(Nc2ccc(OC)c(OC)c2)c2sc(-c3ccccc3)cc2n1 | active: 1.84 µM | 
Cc1ccc(NC(=O)c2cn(CCC#N)nc2-c2cccs2)c([N+](=O)[O-])c1 | inconclusive [inhibitor, single point] | 
O=C1C=C(c2cccc(Cl)c2)C[C@@H](c2ccc3c(c2)OCO3)C1 | inconclusive [inhibitor, single point] | 
CCCCCSc1nc2c(cnn2-c2ccc(F)cc2)c(=O)[nH]1 | inconclusive [inhibitor, single point] | 
CN(C(=O)CSCC(=O)Nc1ccc(Cl)cc1)C1CCCCC1 | inconclusive [inhibitor, single point] | 

Structure (SMILES) | Potency | activity change, negative = growth inhibition
CCn1c(C)c(C)c2cc(C(=O)NCCc3cc(OC)ccc3OC)ccc21 | active: 20.6 µM | 
COc1ccc(C2=CC(=O)C[C@H](c3ccc(OC)c(OC)c3)C2)cn1 | inconclusive [inhibitor, single point] | 
O=C(COc1ccccc1)Nc1nc(-c2cccnc2)cs1 | inconclusive [inhibitor, partial curve] | 
COc1cccc(NS(=O)(=O)c2ccc3c(c2)N(C(C)=O)CCO3)c1 |  | inconclusive: -31.1% [inhibitor]
CC(=O)N1N=C(c2ccccc2O)CC1c1cccs1 (configuration not stated) | inconclusive [inhibitor, partial curve] | 
Cc1nn(CCO)c(N)c1C1(O)C(=O)Nc2c(Cl)cc(Cl)cc21 (configuration not stated) | active: 4.11 µM | 
O=C(Nc1cccc(Cl)c1N1CCCCC1)c1ccc(N2CCOCC2)c([N+](=O)[O-])c1 | inconclusive [inhibitor, full curve, poor fit] | 
O=C(COc1ccc(Cl)cc1Cl)N/N=C/c1ccc(OC2OC(CO)C(O)C(O)C2O)cc1 (configuration not stated) | inactive | 
O=C(Nc1nnc(C2CCCCC2)s1)C1CCN(C(=O)c2ccco2)CC1 | inconclusive [inhibitor, single point] | 
O=C(Nc1cccc(C(F)(F)F)c1)C1CCCN(S(=O)(=O)c2cccc3nonc23)C1 (configuration not stated) | inconclusive [inhibitor, single point] | 
Cc1ccc(C(C(=O)NC(C)(C)C)N(Cc2cccs2)C(=O)c2csnn2)cc1 (configuration not stated) | inconclusive [inhibitor, partial curve, poor fit] | 
COc1ccc(-c2csc(NC(=O)CS(=O)(=O)c3ccccc3)n2)cc1 | inconclusive [inhibitor, single point] | 
Cc1nn(-c2ccccc2)c(C)c1C=O | inactive | 
CCCn1c(CN2CCCCC2C)nc2c1c(=O)n(C)c(=O)n2C (configuration not stated) | inconclusive [inhibitor, single point] | 
CC(=O)c1ccc(OCc2cc(C(=O)NC(C)c3cnn(C)c3)no2)cc1 (configuration not stated) | inactive | 
O=C(O)CNC(=S)N(Cc1ccccc1)Cc1ccccc1F | inactive | 
Clc1ccc(CNc2ncnc3[nH]ncc23)c(Cl)c1 | inconclusive [inhibitor, single point] | 
CCNC(=S)NNC(=O)c1cc(C2CC2)nc2ccccc12 | inconclusive [inhibitor, single point] | 
COc1ccc(-c2ccnc(-c3ccncc3)n2)cc1 | inconclusive [inhibitor, single point] | 
Cc1cc(C(=O)CSc2nc3ccccc3o2)c(C)n1CC1CCCO1 (configuration not stated) | active: 9.2 µM | 
COc1ccc(CNC(=O)c2ccc(S(=O)(=O)N3CC(C)CC(C)C3)cc2)cc1OC (configuration not stated) | inconclusive [inhibitor, single point] | 
COc1cc(/C=N/NC(=S)NCc2ccccc2)ccc1OCC#N | active: 20.6 µM | 
Cc1oc2c(C)c3oc(=O)c(CCC(=O)N4CCCCC4)c(C)c3cc2c1C | active: 14.6 µM | 
Cc1nc(N2CCOCC2)c2cc(-c3ccccc3)sc2n1 | inconclusive [inhibitor, partial curve] | 

Structure (SMILES) | Potency | activity change, negative = growth inhibition
COc1ccc(C(=O)Nc2ncccc2C)cc1S(=O)(=O)N1CCOCC1 | inactive | 
O=C(COC(=O)COc1ccccc1)Nc1ccc(S(=O)(=O)N2CCOCC2)cc1 | inactive | 
CC(=O)Nc1ccc(OC/C=C(\C)Cl)cc1 | inactive | 
COc1cc(-c2nnc(SCCOc3ccccc3)o2)cc(OC)c1OC | inconclusive [inhibitor, partial curve, poor fit] | 
COc1cccc(NC(=O)Cn2c(=O)oc3ccccc32)c1 | inconclusive [inhibitor, single point] | 
O=C(c1ccc([N+](=O)[O-])cc1)N1CCN(c2ncccn2)CC1 | inactive | 
COc1ccc(C(=O)Nc2cc(-c3ccccc3)nn2-c2ccccc2F)cc1 | active: 23.1 µM | 
O=C(Nc1cc(C(=O)N2CCN(c3ccccc3)CC2)ccc1Cl)c1cccs1 | inconclusive [inhibitor, single point] | 
COC(=O)c1cccc(C23CC4(C2)[C@H](CN(CC2CCCCC2)[C@@H]4c2ccccc2)C3c2ccccc2)c1 (some centres not stated) | inconclusive [inhibitor, single point] | 
CC(=O)N1CCc2c(sc(NC(=O)CSc3ccc(F)cc3)c2-c2nc3ccccc3s2)C1 | active: 11.6 µM | 
CCN(CC)C(=O)[C@H]1CC(CC(=O)NCc2ccc(OC)c(OC)c2)C(=O)N2CCc3c([nH]c4ccc(OC)cc34)[C@]12C (some centres not stated) | inactive | 
CCCCN(Cc1cccs1)S(=O)(=O)c1csc(C(N)=O)c1 | inconclusive [inhibitor, single point] | 
Cc1ccn2cc(C(=O)NC3CCN(Cc4ccccc4)CC3)nc2c1 | inactive | 
O/N=C(/C[n+]1cccc(Br)c1)c1ccc2ccccc2c1 | inconclusive [inhibitor, single point] | 
CCc1ccc(N(CC(=O)NCc2cccnc2)S(=O)(=O)c2ccccc2)cc1 | inconclusive [inhibitor, single point] | 
CCn1c(COc2ccccc2)nnc1SCC(=O)Nc1cc(C)ccc1OC | inconclusive [inhibitor, single point] | 
O=[N+]([O-])c1ccc(CSc2nnc(-c3cccnc3)o2)cc1 | inactive | 
CC(C)CNC(=O)N1c2ccccc2Sc2ccccc21 | inactive | 
C=CCN1C(=O)c2ccc(C(=O)N(CC)CC(=O)Nc3ccc(OC)cc3)cc2C1=O | inactive | 
ON=C1c2cc(OCCN3CCCCC3)ccc2-c2ccc(OCCN3CCCCC3)cc21 | active: 7.31 µM | 
CC(=O)Nc1cccc(-c2ccnc3c2CC(C(=O)NCc2cccs2)O3)c1 (configuration not stated) | active: 0.92 µM | 
CCOCCCn1c(=S)[nH]c2cc(C(=O)N3CCN(C4CCCCC4)CC3)ccc2c1=O | active: 23.1 µM | 
O=C(NCc1ccco1)/C(=C/c1cccnc1)NC(=O)c1cccc(Br)c1 | inactive | 
O=C1CN(S(=O)(=O)c2ccc(Cl)cc2)c2ccccc2N1 | inactive | 
